Screen size: about 220,000 compounds; about 5,700 (2.6%) were called active. The inconclusive results got no clear call from the source; some entries with a clear call stand among them for comparison. Calls come from the whole dose curve; as a rule, active = well fitted inhibition curve with a large enough effect; inconclusive = small, poorly fitted or top-dose-only effect; inactive = no such curve, though single readings can be large or run the other way. Where the call is inconclusive, the potency comes from a doubtful curve fit.
These compounds were tested against Lysine-specific demethylase 5B (Homo sapiens) (UniProt Q9UGL1) (assay: Primary screen for KDM5B Histone Demethylases FDH-coupled qHTS). Settings: FDH-coupled NADH fluorescence (FDH is formaldehyde dehydrogenase); activity change, negative = inhibition: at 57.7 µM (top of the series) unless noted.
Sequence of UniProt Q9UGL1 (Q9UGL1 whole entry, looked up): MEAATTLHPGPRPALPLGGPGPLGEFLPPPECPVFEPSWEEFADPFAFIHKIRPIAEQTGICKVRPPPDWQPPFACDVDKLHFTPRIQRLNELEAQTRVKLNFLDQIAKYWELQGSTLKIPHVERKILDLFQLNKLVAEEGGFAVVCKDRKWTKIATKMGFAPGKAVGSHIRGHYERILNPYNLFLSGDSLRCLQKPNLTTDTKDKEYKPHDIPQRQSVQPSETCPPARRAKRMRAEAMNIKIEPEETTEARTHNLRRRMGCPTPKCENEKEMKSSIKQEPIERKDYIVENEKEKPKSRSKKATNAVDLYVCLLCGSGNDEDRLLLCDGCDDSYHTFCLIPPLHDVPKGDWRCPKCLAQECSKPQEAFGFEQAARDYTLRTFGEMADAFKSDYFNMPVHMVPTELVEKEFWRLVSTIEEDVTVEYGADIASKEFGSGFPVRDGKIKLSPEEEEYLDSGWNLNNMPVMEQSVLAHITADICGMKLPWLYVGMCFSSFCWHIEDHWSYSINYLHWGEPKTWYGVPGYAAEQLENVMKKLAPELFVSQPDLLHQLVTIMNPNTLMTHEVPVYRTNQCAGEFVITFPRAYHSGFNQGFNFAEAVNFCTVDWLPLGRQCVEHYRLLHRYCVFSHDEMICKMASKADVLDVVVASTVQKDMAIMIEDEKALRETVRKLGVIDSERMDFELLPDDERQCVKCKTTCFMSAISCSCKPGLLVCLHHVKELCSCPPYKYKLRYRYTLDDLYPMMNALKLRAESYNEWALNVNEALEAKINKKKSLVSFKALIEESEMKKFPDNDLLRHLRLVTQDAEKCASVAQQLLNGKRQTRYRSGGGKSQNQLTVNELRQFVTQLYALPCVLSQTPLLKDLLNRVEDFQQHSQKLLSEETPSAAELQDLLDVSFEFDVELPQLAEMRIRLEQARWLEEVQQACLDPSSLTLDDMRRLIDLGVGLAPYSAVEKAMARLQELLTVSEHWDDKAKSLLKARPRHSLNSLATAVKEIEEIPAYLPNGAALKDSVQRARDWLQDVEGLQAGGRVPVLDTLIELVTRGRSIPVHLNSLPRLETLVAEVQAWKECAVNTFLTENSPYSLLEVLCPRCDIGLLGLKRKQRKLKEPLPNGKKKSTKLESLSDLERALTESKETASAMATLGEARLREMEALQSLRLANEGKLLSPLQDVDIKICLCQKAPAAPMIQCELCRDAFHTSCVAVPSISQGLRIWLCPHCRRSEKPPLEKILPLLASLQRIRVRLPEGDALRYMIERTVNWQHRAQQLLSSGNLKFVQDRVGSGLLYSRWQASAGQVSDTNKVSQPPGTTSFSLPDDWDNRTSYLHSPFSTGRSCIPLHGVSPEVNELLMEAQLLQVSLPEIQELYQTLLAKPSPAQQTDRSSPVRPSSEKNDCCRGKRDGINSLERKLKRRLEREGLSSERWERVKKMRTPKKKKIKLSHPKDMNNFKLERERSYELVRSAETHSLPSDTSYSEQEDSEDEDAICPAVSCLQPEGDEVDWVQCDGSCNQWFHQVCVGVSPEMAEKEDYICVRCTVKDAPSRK
Procedure, shortened: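 Compound dilutions met 200 nM (final) KDM5BΔAP for 10 min at room temperature before substrate addition. The substrate mix held 12.5 µM H3K4me3 with cofactors 25 µM α-ketoglutarate and 50 µM Fe²⁺. NADH signal gain over 30 min defined activity.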
Note: nearly all actives have a fitted effect of over 70% in size.
Potency is the fitted concentration of half-maximal effect; tags give direction and shape of the fitted curve.
Throughout, for activity change, negative = inhibition: 0% is about no effect.

SMILES	Potency	activity change, negative = inhibition
COCCNC(=S)NNC(=O)c1cc(C)nc2ccccc12	inactive	
CCOc1ccc(-c2nc(CN3CCCC(O)C3)cs2)cc1OC (centres undefined)	inconclusive: 28.2 µM [inhibitor, partial curve, poor fit]	
Cc1ccc(NC(=O)CN2C(=O)COc3ccc(S(=O)(=O)NC4CCCC4)cc32)c(Cl)c1	inconclusive: 15.8 µM [inhibitor, partial curve, poor fit]	
COCC(=O)N1CCc2cn(CC(C)C)c3cccc(c23)C1	inconclusive: 28.2 µM [inhibitor, partial curve, poor fit]	
COc1ccc2cc(CN(C)C(=O)c3ccc4c(c3)OCO4)ccc2c1	inconclusive: 22.4 µM [inhibitor, partial curve, poor fit]	
O=C(O)CCNS(=O)(=O)c1ccc(C(=O)/C=C/c2cccc(Cl)c2)cc1	inconclusive: 39.8 µM [inhibitor, single point]	
Cc1cc(C(=O)N[C@H](C)c2c(-c3ccc(F)cc3)noc2C(=O)O)c(C)o1	inconclusive: 28.2 µM [inhibitor, partial curve]	
COc1ccc(-c2noc([C@@H]3CCCN3C(=O)c3ccccc3Cl)n2)cc1	inactive	
Cc1cccc(-c2ccc3c(c2)C(=O)N2C[C@H](O)C[C@H]2C(=O)N3)c1C	inactive	
CCN(CC)CCOC(=O)c1c(C)n(C)c2ccc(OC)cc12	inconclusive: 28.2 µM [inhibitor, single point]	
Cc1ccc(-c2cc(C(=O)NCCC(c3ccccc3)c3ccccc3)c3ccccc3n2)cc1	inactive	
O=C(N[C@@H]1CCOC[C@H]1OCCO)c1ccc(CN2CCCCCC2)cc1	inconclusive: 12.6 µM [inhibitor, partial curve, poor fit]	
C=CCn1c(SCC(=O)N2CCCC2)nc2c([nH]c3ccccc32)c1=O	inconclusive: 22.4 µM [inhibitor, single point]	
Cn1c(CNC(=O)c2ccc3nccn3c2)nc2cc(C(F)(F)F)ccc21	active: 20 µM	
Cc1cc(N2CCN(c3cccc(C)c3C)CC2)n2nc(-c3ccco3)nc2n1	inactive	
CC(=O)N1CCC2(CC1)CN(Cc1ccncc1)Cc1ccccc1O2	active: 56.2 µM	
CCOc1ccc(CN2CCc3nc(N4CCN(c5ccccn5)CC4)ncc3C2)cc1OC	inconclusive: 28.2 µM [inhibitor, partial curve, poor fit]	
Cc1ncc(CN)c(C)c1N	inconclusive: 28.2 µM [inhibitor, partial curve, poor fit]	
CCNc1ncc(C(=O)N[C@H](c2cnn(C)c2)C2CC(O)C2)cn1 (some centres undefined)	active: 28.2 µM	
c1cnc(-c2n[nH]c(C3CCCCN3)n2)cn1 (centres undefined)	inconclusive: 15.8 µM [inhibitor, partial curve, poor fit]	
COC(=O)c1cc(Nc2cc(C)c3ccc(O)cc3n2)cc(C(=O)OC)c1	inconclusive: 31.6 µM [inhibitor, partial curve, poor fit]	
COc1ccccc1NC(=O)Cn1c(=O)n(-c2cccc(C)c2)c(=O)c2c1c1cc(C)ccc1n2C	inconclusive: 11.2 µM [inhibitor, partial curve, poor fit]	
Cn1c(=O)c2cc(C(=O)NC3CCCCCC3)sc2c2ccccc21	inconclusive: 15.8 µM [inhibitor, partial curve, poor fit]	

SMILES	Potency	activity change, negative = inhibition
CCOc1ccc(NC(=O)Cn2ccn3nc(-c4ccc(F)cc4)c(CO)c3c2=O)cc1	inconclusive: 22.4 µM [inhibitor, single point]	
N#CC1(C#N)CC1(C#N)C(N)=O (centres undefined)	inactive	
CCOc1ccc(/C=C/c2nc(C#N)c(NCCN3CCOCC3)o2)cc1	inconclusive: 25.1 µM [inhibitor, partial curve, poor fit]	
CCc1nnc(N/N=C\c2ccc(OC(C)=O)c(OC)c2)n1N	inconclusive: 39.8 µM [inhibitor, partial curve, poor fit]	
CNC(=O)[C@@H]1CN(C(=O)c2ccc(F)cn2)C[C@H]1COC	inactive	
COc1ccc(-c2nnc(CSc3nc(C)c(C)n3C3CCCC3)o2)cc1	inactive	
Cn1cc(CCNC(=O)c2ccc3oc(-c4cccc(F)c4)nc3c2)cn1	inconclusive: 35.5 µM [inhibitor, single point]	
CCc1noc(-c2cccn3c(CNC(=O)c4ccc(F)cc4Cl)nnc23)n1	inconclusive: 25.1 µM [inhibitor, partial curve, poor fit]	
COc1cccc(C(=O)Nc2ccccc2OCc2cc(=O)n3ccccc3n2)c1	inconclusive: 2.24 µM [inhibitor, full curve, poor fit]	
Cc1cccn2c(=O)c(/C=C(\C#N)c3nc4ccccc4s3)c(Oc3ccc(F)cc3)nc12	inconclusive: 12.6 µM [inhibitor, partial curve, poor fit]	
CN(c1ccccc1)c1cc(=O)c2ccnc(-c3cccnc3)c2o1	inactive	
CCCNc1c(NC(=O)NCC2CCCO2)c(=O)oc2ccccc12 (centres undefined)	inactive	
O=C(O)c1cc2cn(C3CC3)cc2s1	active: 25.1 µM	
c1ccc(OCCCN2CCC(c3nc4ccccc4s3)CC2)cc1	inconclusive: 25.1 µM [inhibitor, partial curve, poor fit]	
O=C(Nc1cc(-c2ccccc2)nn1C1CCS(=O)(=O)C1)c1cccs1 (centres undefined)	inconclusive: 28.2 µM [inhibitor, single point]	
Cc1nc2nc(SCC(=O)Nc3ccccc3Cl)nn2c(C)c1Cc1ccccc1	inconclusive: 25.1 µM [inhibitor, partial curve, poor fit]	
CN1CCN(C(=O)Cn2ncc3c4ccccc4n(Cc4ccc(F)cc4)c3c2=O)CC1	inconclusive: 25.1 µM [inhibitor, single point]	
Cc1cc(C)c(S(=O)(=O)Nc2ccc3oc4c(c3c2)C(=O)CC(C)(C)C4)cc1C		inconclusive: -41% [inhibitor] [at 11.5 µM]
Cn1c(-c2ccc(Cl)cc2)cc2ccccc21	inconclusive: 8.91 µM [inhibitor, partial curve, poor fit]	
O=C(Cc1ccc(C(F)(F)F)cc1)NCCc1ccccn1	inactive	
CCOc1ccccc1CNC(=O)c1cccc(NC(=O)c2nsc3ccccc23)c1	inconclusive: 15.8 µM [inhibitor, partial curve, poor fit]	
Cc1ccc(C(CC(=O)Nc2ccc(C)cc2C)N2Cc3ccccc3C2=O)cc1 (centres undefined)	inconclusive: 1.41 µM [inhibitor, partial curve, poor fit]	
CCc1noc(-c2cn(C3CCN(C(=O)COc4cccc(C)c4)CC3)nn2)n1	inactive	

SMILES	Potency	activity change, negative = inhibition
CC(C)C(CNC(=O)c1n[nH]c(=O)c2ccccc12)N(C)C (centres undefined)	inactive	
COc1ccc(C(=O)Nc2ccc3nc(N4CCCCC4)cc(C)c3c2)c(OC)c1	inconclusive: 44.7 µM [inhibitor, single point]	
COc1cccc(CN2C[C@@H](F)[C@@H](OCc3nc4ncccc4[nH]3)C2)c1	inconclusive: 56.2 µM [inhibitor, single point]	
O=C(O)/C=C/c1ccc(-c2ccc(Br)cc2)s1	inconclusive: 39.8 µM [inhibitor, single point]	
O=S(=O)(c1ccccc1F)N1CCN(Cc2coc(-c3cccs3)n2)CC1	inactive	
COc1ccccc1C(=O)N1CCC2(CC1)CN(c1ncccn1)CC2CO (centres undefined)	active: 25.1 µM	
O=C(Cn1c(SCc2cccc(F)c2)nc2ccncc21)Nc1ccc(Cl)cc1F	inconclusive: 39.8 µM [inhibitor, single point]	
C=CCNC(=O)c1c[nH]c2cccnc12	active: 126 µM	
CCOc1ccc2c(n1)CCN(C(=O)c1ccc(OC)cc1OC)C2	inactive	
COCCN1Cc2ccc(NCc3ccccc3)nc2C(C)(C(=O)Nc2cccnc2)C1 (centres undefined)	active: 31.6 µM	
COc1ccc(Cl)cc1NC(=O)C(C)N1Cc2ccccc2C1=O (centres undefined)	inactive	
O=C(CN1C(=O)COc2ccc(S(=O)(=O)N3CCCCCC3)cc21)N1CCN(c2ccccc2)CC1	inconclusive: 1.41 µM [inhibitor, partial curve, poor fit]	
Cc1oc(-c2cccs2)nc1CC(=O)Nc1cccc(C#N)c1	inconclusive: 20 µM [inhibitor, partial curve, poor fit]	
CC1=C(C(=O)OC(C)(C)C)C(c2ccc(C(C)C)cc2)NC(=S)N1 (centres undefined)	inconclusive: 39.8 µM [inhibitor, partial curve, poor fit]	
CC(C)(C)c1ccc(C23OC(=O)C(C)(C)C2OC(=O)C3(C)C)cc1 (centres undefined)	inactive	
Cc1cc(C(=O)Nc2cccc(-c3nc4ccccc4o3)c2)ccc1[N+](=O)[O-]	inactive	
COc1ccccc1N1CCCc2ncc(C(=O)NCc3ccccc3)cc21	inconclusive: 35.5 µM [inhibitor, single point]	
C[S+](=O)([O-])Nc1cccc(-c2cc(-c3cccnc3)c3cncn3c2)c1	active: 35.5 µM	
CCCc1cc(C(=O)NCc2c(C)ncc3c2CCNC3)n[nH]1	inactive	
CCOC(=O)c1c(-c2ccccc2)csc1NC(=O)c1cc(-c2cccc(OC)c2)on1	inconclusive: 15.8 µM [inhibitor, partial curve, poor fit]	
CCNC(=O)c1cccc(NC(=O)c2cc(C3CC3)nc3ccccc23)c1	inactive	
COc1ccccc1-c1ncc[nH]1	inconclusive: 141 µM [inhibitor, partial curve, poor fit]	
O=C(c1cc2n(n1)CC(c1ccc3c(c1)OCO3)OC2)N1CCN(c2ccccc2)CC1 (centres undefined)	inconclusive: 14.1 µM [inhibitor, partial curve]	
